Assay results published in PubChem BioAssay AID624296 (National Center for Advancing Translational Sciences (NCATS), 2012).
Among all 350,000 compounds or so, about 9,900 (2.8%) were called active. This list was built around the results that the source calls inconclusive (neither active nor inactive); the mix of calls is not that of the screen. Calls follow the shape of the dose curve; as a rule, active = well fitted activation curve with a large enough effect; inconclusive = small, poorly fitted or top-dose-only effect; inactive = no such curve, though single readings can be large or run the other way. No potency is given beside an inconclusive call; the fits are too rough.

experiment: A quantitative high throughput screen for small molecules that induce DNA re-replication in MCF 10a normal breast cells.; also: nearly all actives have a fitted effect of over 50% in size; as to activity, positive = re-replication: % of control where 0% means no effect; settings: MCF 10A DNA re-replication, Hoechst nuclear intensity, 48 h; activity, positive = re-replication: at 46.1 µM (top of the series)
Potency is read from the fitted curve at half-maximal effect; tags tell the direction and shape of the fitted curve.

Row | SMILES | activity, positive = re-replication | Potency
1 | COc1cccc2cc(-c3cc(=O)oc4cc(C)c(OCC(C)=O)cc34)oc12 | inactive: 19.8% | –
2 | Cc1cccc(CN2C(=O)N/C(=C/c3cc(C)n(-c4cc(C)ccn4)c3C)C2=O)c1 | – | inconclusive [activator, single point]
3 | COc1ccc(/C=C(/NC(=O)c2ccccc2)c2nc3ccc(Cl)cc3[nH]2)cc1OC | – | inconclusive [activator, partial curve]
4 | O=C(N/N=C/c1ccsc1)c1cc(-c2cccs2)nc2ccccc12 | – | active: 5.8 µM
5 | O=C1OCCN1C(=O)[C@H]1[C@H](c2ccc(F)cc2)C(c2ccccc2)=NN1c1ccc(Br)cc1 | – | inconclusive [activator, full curve]
6 | Cc1cccc(Oc2sc(C(=O)c3ccccc3)c(N)c2C#N)c1C | – | inconclusive [activator, partial curve, poor fit]
7 | O=C1CCC([N+](=O)[O-])C(c2ccccc2Cl)N1 (configuration not stated) | – | inconclusive [activator, single point]
8 | O=C(COC(=O)c1cccnc1Nc1cccc(C(F)(F)F)c1)NCc1ccc2c(c1)OCO2 | – | inconclusive [activator, single point]
9 | Fc1ccc(-c2nc(-c3cnccn3)no2)c(Cl)c1 | – | inconclusive [activator, single point]
10 | O=C(CSc1nc2ccc(Nc3nc(N4CCOCC4)nc(N4CCOCC4)n3)cc2s1)N1CCOCC1 | – | inconclusive [activator, single point]
11 | Cc1nnsc1NC(=O)OCc1ccc(C(F)(F)F)cc1 | – | inconclusive [activator, partial curve, poor fit]
12 | CSc1ccccc1C(=O)NCc1cccnc1 | inactive: 3.59% | –
13 | O=C(COC(=O)c1ccccc1C(=O)c1ccccc1)NCCc1ccc(Cl)cc1Cl | – | inconclusive [activator, single point]
14 | CC(C)(C)n1ncc2c(=O)n(CC(=O)N3CCN(c4ccccc4)CC3)cnc21 | – | inconclusive [activator, partial curve, poor fit]
15 | CCC1CCCCN1CCCNC(=O)CCC(=O)N1CC(C)Oc2ccccc21 (configuration not stated) | inactive: 28.6% | –
16 | CN(C)c1cc(Nc2cccc(O)c2)c([N+](=O)[O-])c2nonc12 | – | inconclusive [activator, single point]
17 | O=C(Nc1cccc2ccccc12)N1CCN(c2ccc(F)cc2)CC1 | – | inconclusive [activator, single point]
18 | COc1cccc(N2CC(NS(=O)(=O)c3ccc4ccccc4c3)CC2=O)c1 (configuration not stated) | inactive: -27.5% | –
19 | COc1cc(-c2ccc3c(=O)c4ccccc4n(C)c3c2)cc(OC)c1OC | inconclusive: 42.7% [activator] | –
20 | O=S(=O)(c1ccc(Cl)nc1)N1CCOCC1 | inactive: 2.33% | –
21 | O=C(Nn1c(C2CCCCC2)nc2ccccc2c1=O)c1cc(Cl)ccc1[N+](=O)[O-] | – | inconclusive [activator, single point]
22 | COC(=O)Cn1c(=NC(=O)c2cc(-c3cccs3)nc3ccccc23)sc2cc(S(N)(=O)=O)ccc21 | – | active: 7.31 µM
23 | CCOC(=O)c1[nH]c(C)c(C(=O)OCC(=O)N2CCc3ccccc32)c1C | – | active: 23.1 µM
24 | Cc1cccc(C(=O)NC(C(=O)Nc2ccccc2N2CCOCC2)C(C)C)c1 (configuration not stated) | inactive: -2.09% | –

Row | SMILES | activity, positive = re-replication | Potency
25 | CSc1ccccc1C(=O)C1CCCN(Cc2c(C)n(C)n(-c3ccccc3)c2=O)C1 (configuration not stated) | inactive: 6.05% | –
26 | O=C(/C=C/c1cccs1)c1cc(Br)ccc1OC(=O)N1CCOCC1 | – | inconclusive [activator, full curve, poor fit]
27 | COc1ccc(CNC(=O)C2CCN(S(=O)(=O)c3ccc4c(c3)N(C(C)=O)CCO4)CC2)cc1 | inactive: -2.62% | –
28 | Cc1cc(CN(C)C(=O)c2cc(COc3ccc(C)c(C)c3)on2)n[nH]1 | – | inconclusive [activator, single point]
29 | Cc1nc(NCc2cccnc2)c2c3c(sc2n1)CC(C)CC3 (configuration not stated) | – | inconclusive [activator, full curve, poor fit]
30 | COc1ccc(S(=O)(=O)N(C)C)cc1NC(=O)CSc1nc(N)cc(N)n1 | inactive: -7.55% | –
31 | COc1ccccc1NC(=O)CC(c1ccc(OC(C)C)cc1)c1ccccc1OC (configuration not stated) | – | inconclusive [activator, single point]
32 | CC(=O)Nc1ccc(NC(=O)C2C3C=CC(C3)C2C(=O)O)cc1 (configuration not stated) | – | inconclusive [activator, single point]
33 | COc1ccc(CCNC(=O)c2coc(=O)c(Br)c2)cc1 | – | active: 5.8 µM
34 | CC(=O)c1cccc(NC(=O)NC2CCCCCCC2)c1 | inactive: 0.598% | –
35 | CN(C)c1ccc(-c2nn3c(-c4ccccc4Cl)nnc3s2)cc1 | – | inconclusive [activator, full curve, poor fit]
36 | FC(F)(F)c1cc(-c2cccs2)nc(NCc2ccco2)n1 | inactive: 13.3% | –
37 | CCOc1ccc(N2C(=O)C(CC(=O)Nc3ccccc3)N(Cc3ccccn3)C2=S)cc1 (configuration not stated) | – | inconclusive [activator, partial curve, poor fit]
38 | COc1cc(NC(=O)c2cc(C)no2)cc(OC)c1OC | inactive: -0.562% | –
39 | CCc1noc(C)c1C(=O)Nc1nc2c(F)cc(F)cc2s1 | – | inconclusive [activator, single point]
40 | COc1ccc(CC(=O)N(Cc2ccccc2)c2ccccc2)cc1S(=O)(=O)N1CCOCC1 | inactive: -5.09% | –
41 | O=c1cc(-c2ccccc2[N+](=O)[O-])oc2ccccc12 | – | active: 5.17 µM
42 | Cc1ccc(OCc2nc(C#N)c(N3CCCCC3)o2)cc1 | inactive: 0.237% | –
43 | COc1ccc(S(=O)(=O)c2cnc3ccccc3n2)cc1 | – | inconclusive [activator, single point]
44 | Cc1ccc(-n2nc3c(N4CCC(C(=O)NCc5cccc(F)c5)CC4)nnc(C)c3c2C)cc1 | inactive: 3.88% | –
45 | COc1cccc(C2C=C(c3ccc(Br)s3)Nc3ncnn32)c1OC (configuration not stated) | inactive: 0.235% | –
46 | CSc1ncccc1C(=O)Nc1ccc2c(c1)OCO2 | inactive: 2.63% | –
47 | CC(/C=C/c1ccco1)=N/NC(=O)OC(C)(C)C | – | inconclusive [activator, partial curve, poor fit]
48 | C/C(=N\NC(=O)c1cc(-c2ccc(Br)s2)[nH]n1)c1ccncc1 | – | inconclusive [activator, partial curve, poor fit]

Row | SMILES | activity, positive = re-replication | Potency
49 | CCN1CCc2c(sc(NC(=O)c3ccc(S(=O)(=O)N4CCCCCC4)cc3)c2C(=O)NC)C1 | – | inconclusive [activator, single point]
50 | Cc1ccccc1CN1CCNC(=O)C1CC(=O)NCCN1CCCCC1=O (configuration not stated) | inactive: -1.51% | –
51 | N/C(=N\OC(=O)/C=C/c1ccccc1)c1ccc(Br)cc1 | – | inconclusive [activator, single point]
52 | CCC(=O)N(CC)C1=C(O)c2ccccc2C(=O)C1=O | – | inconclusive [activator, single point]
53 | Nc1nc(N)c2sc3nc(C(F)(F)F)cc(C(F)(F)F)c3c2n1 | – | inconclusive [activator, single point]
54 | CCOc1ccc(-c2cn(-c3ccccc3OC)c(=S)[nH]2)cc1 | – | inconclusive [activator, single point]
55 | O=C(COc1ccc(S(=O)(=O)N2CCCC2)cc1)NCc1ccco1 | – | inconclusive [activator, single point]
56 | CC(C)C(=O)Nc1sc2c(c1-c1nc3ccccc3[nH]1)CCCC2 | – | inconclusive [activator, partial curve, poor fit]
57 | Cc1[nH]c2ccccc2c1/C=N/NC(=O)C1CC1(c1ccccc1)c1ccccc1 (configuration not stated) | – | active: 23.1 µM
58 | Cc1ccc(SCCCCN2CCNCC2)cc1 | – | inconclusive [activator, partial curve, poor fit]
59 | O=C(Nc1ccc(Oc2ccc(Br)cc2)cc1)C1=CC=CN2CCS(=O)(=O)N=C12 | inconclusive: 256% [activator] | –
60 | CCOC(=O)c1[nH]c(C)c(C(=O)Nc2ccc(C)c(F)c2)c1C | – | active: 11.6 µM
61 | O=C(CSc1nc2ccccc2s1)Nn1cnnc1 | – | inconclusive [activator, partial curve, poor fit]
62 | COc1ccc(C(=O)/C=C\c2ccc(NC(=O)c3cccs3)cc2)cc1 | – | inconclusive [activator, full curve, poor fit]
63 | Cc1nn(C)cc1S(=O)(=O)Nc1ccccc1Br | inactive: -1.44% | –
64 | CCCCCCCCCCCCCCCC(=O)OCC(COP(=O)(O)OCC[N+](C)(C)C)OC(=O)CCCCCCCCCCCCCCC (configuration not stated) | inactive: 4.45% | –
65 | COC(=O)CC1C(=O)NC2CCCCC2N1C(=O)CCl (configuration not stated) | – | inconclusive [activator, single point]
66 | CCc1ccc(N2C(=O)C(Cl)=C(Nc3ccc(C(=O)N4CCCC4)cc3)C2=O)cc1 | – | active: 10.3 µM
67 | COc1ccc(N/C=C\C(=O)c2ccc3ccccc3c2)cc1 | – | inconclusive [activator, single point]
68 | COCC(=O)N1CCC(Oc2ccc(C(=O)N[C@H](C(=O)OC)C(C)C)cc2)CC1 | inactive: 0.711% | –
69 | COc1ccc(-c2c(C#CC(C)(C)O)c3ccccc3n2C)cc1 | – | inconclusive [activator, partial curve, poor fit]
70 | CCS(=O)(=O)c1ccc(O)c(NC(=O)COc2ccc(OC)cc2)c1 | inactive: -0.559% | –
71 | Cc1ccc2nc(Cl)c(/C=N/Nc3ccc(C(=O)O)cc3)cc2c1 | – | active: 16.4 µM
72 | CC1(C)Cc2c(c(-c3ccco3)nc3sc4c(NCC5CCCO5)ncnc4c23)CO1 (configuration not stated) | – | active: 23.1 µM
